# Results reported in the supplement of paper PMC8728848.
# This is one part of the list.
# Columns and labels:
# Assay in all cases: glycan array binding signal (z-score within array); higher = stronger binding
# Conditions in all cases: glycan notation: IUPAC condensed, linker removed
# [1] = molecular target: Gal(a1-3)Gal(b1-4)[Fuc(a1-3)]GlcNAc
# Method in brief: (§1)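 Glycan array data were curated from 3228 arrays in the Consortium for Functional Glycomics database and kept only where the protein sequence was available. Glycan names were converted to IUPAC-condensed notation, and columns mapping to the same glycan were averaged. The binding signal is a within-array Z-score, averaged across arrays of the same protein sequence at different concentrations or buffers and across linkers. Negative Z-scores can be read as non-binding.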
# [2] = molecular target: Gal(a1-3)Gal(b1-4)[Fuc(a1-3)]GlcNAc(b1-2)Man(a1-3)[Gal(a1-3)Gal(b1-4)[Fuc(a1-3)]GlcNAc(b1-2)Man(a1-6)]Man(b1-4)GlcNAc(b1-4)GlcNAc
# Method in brief: as §1
# Gal(a1-3)GalNAc = molecular target: Gal(a1-3)GalNAc
# Method in brief: as §1
# [3] = molecular target: Gal(a1-3)[Gal(a1-4)]Gal(b1-4)GlcNAc
# Method in brief: as §1
# [4] = molecular target: Gal(a1-4)Gal(b1-3)GlcNAc(b1-2)Man(a1-3)[Gal(a1-4)Gal(b1-3)GlcNAc(b1-2)Man(a1-6)]Man(b1-4)GlcNAc(b1-4)GlcNAc
# Method in brief: as §1
# Gal(a1-4)Gal(b1-4)Glc = molecular target: Gal(a1-4)Gal(b1-4)Glc
# Method in brief: as §1
# Gal(a1-4)Gal(b1-4)GlcNAc = molecular target: Gal(a1-4)Gal(b1-4)GlcNAc
# Method in brief: as §1
# [5] = molecular target: Gal(a1-4)Gal(b1-4)GlcNAc(b1-2)Man(a1-3)[Gal(a1-4)Gal(b1-4)GlcNAc(b1-2)Man(a1-6)]Man(b1-4)GlcNAc(b1-4)GlcNAc
# Method in brief: as §1
# [6] = molecular target: Gal(a1-4)Gal(b1-4)GlcNAc(b1-3)Gal(b1-4)Glc
# Method in brief: as §1
# Gal(a1-4)GlcNAc = molecular target: Gal(a1-4)GlcNAc
# Method in brief: as §1
# Gal(a1-6)Glc = molecular target: Gal(a1-6)Glc
# Method in brief: as §1
# Gal(b1-2)Gal = molecular target: Gal(b1-2)Gal
# Method in brief: as §1
# Gal(b1-3)Gal = molecular target: Gal(b1-3)Gal
# Method in brief: as §1
# Gal(b1-3)Gal(b1-4)GlcNAc = molecular target: Gal(b1-3)Gal(b1-4)GlcNAc
# Method in brief: as §1
# [7] = molecular target: Gal(b1-3)Gal(b1-4)GlcNAc(b1-2)Man(a1-3)[Gal(b1-3)Gal(b1-4)GlcNAc(b1-2)Man(a1-6)]Man(b1-4)GlcNAc(b1-4)GlcNAc
# Method in brief: as §1
# Gal(b1-3)GalNAc = molecular target: Gal(b1-3)GalNAc
# Method in brief: as §1
# [8] = molecular target: Gal(b1-3)GalNAc(a1-3)[Fuc(a1-2)]Gal(b1-4)Glc
# Method in brief: as §1
# [9] = molecular target: Gal(b1-3)GalNAc(a1-3)[Fuc(a1-2)]Gal(b1-4)GlcNAc
# Method in brief: as §1
# [10] = molecular target: Gal(b1-3)GalNAc(b1-3)Gal(a1-4)Gal(b1-4)Glc
# Method in brief: as §1
# [11] = molecular target: Gal(b1-3)GalNAc(b1-4)Gal(b1-4)Glc
# Method in brief: as §1
# [12] = molecular target: Gal(b1-3)GalNAc(b1-4)[Neu5Ac(a2-3)]Gal(b1-4)Glc
# Method in brief: as §1
# Gal(b1-3)GlcNAc = molecular target: Gal(b1-3)GlcNAc
# Method in brief: as §1
# [13] = molecular target: Gal(b1-3)GlcNAc(a1-6)Gal(b1-4)GlcNAc
# Method in brief: as §1
# [14] = molecular target: Gal(b1-3)GlcNAc(b1-2)Man(a1-3)[Gal(b1-3)GlcNAc(b1-2)Man(a1-6)]Man(b1-4)GlcNAc(b1-4)GlcNAc
# Method in brief: as §1
# [15] = molecular target: Gal(b1-3)GlcNAc(b1-2)Man(a1-3)[Gal(b1-3)GlcNAc(b1-2)Man(a1-6)]Man(b1-4)GlcNAc(b1-4)[Fuc(a1-6)]GlcNAc
# Method in brief: as §1
# [16] = molecular target: Gal(b1-3)GlcNAc(b1-2)[Gal(b1-3)GlcNAc(b1-6)]Man(a1-6)[Gal(b1-3)GlcNAc(b1-2)Man(a1-3)]Man(b1-4)GlcNAc(b1-4)GlcNAc
# Method in brief: as §1
# [17] = molecular target: Gal(b1-3)GlcNAc(b1-3)Gal(b1-3)GlcNAc
# Method in brief: as §1
# [18] = molecular target: Gal(b1-3)GlcNAc(b1-3)Gal(b1-4)Glc
# Method in brief: as §1
# [19] = molecular target: Gal(b1-3)GlcNAc(b1-3)Gal(b1-4)GlcNAc
# Method in brief: as §1
# [20] = molecular target: Gal(b1-3)GlcNAc(b1-3)Gal(b1-4)GlcNAc(b1-6)[Gal(b1-3)GlcNAc(b1-3)]Gal(b1-4)Glc
# Method in brief: as §1
# [21] = molecular target: Gal(b1-3)GlcNAc(b1-3)Gal(b1-4)[Fuc(a1-3)]GlcNAc(b1-6)[Gal(b1-3)GlcNAc(b1-3)]Gal(b1-4)Glc
# Method in brief: as §1
# [22] = molecular target: Gal(b1-3)GlcNAc(b1-3)GalNAc
# Method in brief: as §1
# [23] = molecular target: Gal(b1-3)GlcNAc(b1-6)Gal(b1-4)GlcNAc
# Method in brief: as §1
# [24] = molecular target: Gal(b1-3)[Fuc(a1-4)]GlcNAc
# Method in brief: as §1
# [25] = molecular target: Gal(b1-3)[Fuc(a1-4)]GlcNAc(b1-2)Man(a1-3)[Gal(b1-3)[Fuc(a1-4)]GlcNAc(b1-2)Man(a1-6)]Man(b1-4)GlcNAc(b1-4)GlcNAc
# Method in brief: as §1
# [26] = molecular target: Gal(b1-3)[Fuc(a1-4)]GlcNAc(b1-2)Man(a1-3)[Gal(b1-3)[Fuc(a1-4)]GlcNAc(b1-2)Man(a1-6)]Man(b1-4)GlcNAc(b1-4)[Fuc(a1-6)]GlcNAc
# Method in brief: as §1
# [27] = molecular target: Gal(b1-3)[Fuc(a1-4)]GlcNAc(b1-3)Gal(b1-3)[Fuc(a1-4)]GlcNAc
# Method in brief: as §1
# [28] = molecular target: Gal(b1-3)[Fuc(a1-4)]GlcNAc(b1-3)Gal(b1-4)GlcNAc
# Method in brief: as §1
# [29] = molecular target: Gal(b1-3)[Fuc(a1-4)]GlcNAc(b1-3)Gal(b1-4)[Fuc(a1-3)]GlcNAc
# Method in brief: as §1
# [30] = molecular target: Gal(b1-3)[GlcNAc(b1-6)]GalNAc
# Method in brief: as §1
# [31] = molecular target: Gal(b1-3)[Neu5Ac(a2-6)]GalNAc
# Method in brief: as §1
# [32] = molecular target: Gal(b1-3)[Neu5Ac(a2-6)]GlcNAc(b1-6)Gal(b1-4)Glc
# Method in brief: as §1
# [33] = molecular target: Gal(b1-3)[Neu5Ac(b2-6)]GalNAc
# Method in brief: as §1
# Gal(b1-4)Gal = molecular target: Gal(b1-4)Gal
# Method in brief: as §1
# [34] = molecular target: Gal(b1-4)GalNAc(a1-3)[Fuc(a1-2)]Gal(b1-4)GlcNAc
# Method in brief: as §1
binder,measurement,setting,value
"Tap1 (Sordaria macrospora), Q50IV4 (protein) MSHHHHHHHHYTLHLRLINDTSDTLTLVEQTSWWGKNTIWSQVRSTGVHVLSMAASGSSGMLRFQTSKGDFFAVAVGVHNYKRWCDVLVDTADEAPLTKLHPKYYDDKDAKYQALWAQASEFEAKSKSGKTVRIKFYQADGNVLRATVEYL",glycan array binding signal (z-score),[1],-0.245
same,glycan array binding signal (z-score),[2],-0.182
same,glycan array binding signal (z-score),Gal(a1-3)GalNAc,-0.09
same,glycan array binding signal (z-score),[3],-0.23
same,glycan array binding signal (z-score),[4],-0.221
same,glycan array binding signal (z-score),Gal(a1-4)Gal(b1-4)Glc,-0.22
same,glycan array binding signal (z-score),Gal(a1-4)Gal(b1-4)GlcNAc,-0.214
same,glycan array binding signal (z-score),[5],-0.202
same,glycan array binding signal (z-score),[6],-0.226
same,glycan array binding signal (z-score),Gal(a1-4)GlcNAc,-0.235
same,glycan array binding signal (z-score),Gal(a1-6)Glc,-0.248
same,glycan array binding signal (z-score),Gal(b1-2)Gal,-0.207
same,glycan array binding signal (z-score),Gal(b1-3)Gal,-0.228
same,glycan array binding signal (z-score),Gal(b1-3)Gal(b1-4)GlcNAc,-0.158
same,glycan array binding signal (z-score),[7],-0.225
same,glycan array binding signal (z-score),Gal(b1-3)GalNAc,3.97
same,glycan array binding signal (z-score),[8],0.824
same,glycan array binding signal (z-score),[9],1.14
same,glycan array binding signal (z-score),[10],-0.214
same,glycan array binding signal (z-score),[11],-0.206
same,glycan array binding signal (z-score),[12],-0.256
same,glycan array binding signal (z-score),Gal(b1-3)GlcNAc,-0.21
same,glycan array binding signal (z-score),[13],-0.254
same,glycan array binding signal (z-score),[14],-0.198
same,glycan array binding signal (z-score),[15],-0.21
same,glycan array binding signal (z-score),[16],-0.179
same,glycan array binding signal (z-score),[17],-0.236
same,glycan array binding signal (z-score),[18],-0.23
same,glycan array binding signal (z-score),[19],-0.228
same,glycan array binding signal (z-score),[20],-0.217
same,glycan array binding signal (z-score),[21],-0.238
same,glycan array binding signal (z-score),[22],2.1
same,glycan array binding signal (z-score),[23],-0.249
same,glycan array binding signal (z-score),[24],-0.231
same,glycan array binding signal (z-score),[25],0.127
same,glycan array binding signal (z-score),[26],-0.07
same,glycan array binding signal (z-score),[27],-0.171
same,glycan array binding signal (z-score),[28],-0.252
same,glycan array binding signal (z-score),[29],-0.248
same,glycan array binding signal (z-score),[30],1.91
same,glycan array binding signal (z-score),[31],4.09
same,glycan array binding signal (z-score),[32],-0.258
same,glycan array binding signal (z-score),[33],-0.25
same,glycan array binding signal (z-score),Gal(b1-4)Gal,-0.212
same,glycan array binding signal (z-score),[34],-0.225
